# Results: the supplement of paper PMC11417369
# Some of the results follow.
# Test system: PfSIP2 AP2 domain 1 (GST-tagged)
# Test: gcPBM binding intensity (ln(normalized median fluorescence intensity)); higher = stronger DNA binding
# Outline: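 After 1 h on an Agilent 4 × 180k array of primer-extended double-stranded 36-bp intergenic genomic probes and negative controls, bound GST-tagged P. falciparum DNA-binding domains were detected with Alexa488 anti-GST antibody and scanned at 488 nm. The domains had been expressed in E. coli, and binding took place in 1× PBS with 1% milk, 0.2 mg/ml BSA, 0.5% salmon testes DNA and 0.03% Triton X-100. Binding intensity is the highest Masliner-normalised natural-log median intensity across replicate spots of either probe orientation.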
row,Sequence,gcPBM binding intensity (ln)
1,AAAATTAACCGTAACACACACACATATAAATATGTA [CACACA_site7791],7.14
2,TTATTTTATTTTTGTGCACACTGATAAATTGAAAAG [CACACA_site2949],10.2
3,TTATGGTGCAACATTATGCACACCGTTAAATAACTA [CACACA_site3846],11.9
4,ATTTATTTTGTTGTTGTTTTTATTTGATTGTTTTAT [CACACA_negctrl_site1275],6.86
5,GTTTGAATGGCGCACTGTACACATATATACATATAG [XGTACX_site8619],8.38
6,ATTTATGAAAAATGTACACACATCAAATGCTTATAT [CACACA_site4068],6.99
7,ACAAAATTATGTAGATGTACAGACATAGAAAGAGAT [XGTACX_site3096],7.48
8,ATAACAAAAAAAAAGGTGCTACAAAATGAATAAAAA [GTGCAC_site9659],8.84
9,ATATTTTATTTTAATACACACAAGTTATATAACCAC [CACACA_site6508],7.2
10,TACATATATATATATGTACACACATTAATAAAAAAA [CACACA_site9058],7.46
11,AATATAAATAATTATACACACTTAATATATATATAC [CACACA_site5533],7.1
12,ATATTTAGGAAAAATAGTACACATTTAAATAATAAT [XGTACX_site7989],7.01
13,TAGGTGCCTTTTTTCACACACATGTCAACTAAATAT [CACACA_site2656],8.19
14,AAATATATATATATATATATAAATATATACATATAT [TGCATGCA_negctrl_site517],7.17
15,CTTTAAATTAATAAAAGTACATTATTTATATATTTT [XGTACX_site4808],7.05
16,AAAATGTCCCGTAGAAAATAAATTTATTACGCAATA [CACACA_negctrl_site1564],6.84
17,ATTTATGTTAATAAGTGTACAATAAATTTTTTTTAT [XGTACX_site7658],6.94
18,AACATATATAAATACACACACATATATATATGAAAT [CACACA_site4312],7.05
19,TATTAGCATGTTATTACACACAATATAAGATATATA [CACACA_site6775],6.91
20,ACATTTTGTGTTTTAGCACACAATTTTTCAGAATAT [CACACA_site2961],6.91
21,AATATATATTTATAAACACACACCAAAATTTGTGCT [CACACA_site3091],6.96
22,ATATTATAATATTTATGTACATATATATAATATATA [XGTACX_site1633],7.11

row,Sequence,gcPBM binding intensity (ln)
1,TATATATGTATCATTACACACATGTATACTTATTTG [CACACA_site4138],6.9
2,TGTATAAATATATATACACACATATTTATATATATA [CACACA_site755],7.74
3,TACATTTGTATAAATAGTACGCGAAAACAAAAAAAA [XGTACX_site6246],7
4,ATATATGTGCCCATATATATATATATAAATATATGT [GTGCAC_negctrl_site226],7.52
5,TAAAAAAAAACAGAAACACACATTATTCATATATAT [CACACA_site2049],6.86
6,AAAATATTTATGTATGCATGTTGTAATATTTCTTTA [TGCATGCA_site296],7.04
7,ATTTCCCCTTTTTATTGTACATTTTTATTTGTTACT [XGTACX_site4845],7.17
8,TATGCTATATATTTAGTGCATATATATAACTTTTAT [GTGCAC_site9902],8.56
9,AAAATTATATATTTTAGTACATAAAATATTGACATA [XGTACX_site2581],7.04
10,ATGTAATGTTATGTTATGTTTTTTTTTTTTTTGTGT [CACACA_negctrl_site1264],7.03
11,TTTTAAACAGGACACACACACATATATATATATATA [CACACA_site4664],9.44
12,GGAATATGTATATTTTGTACGTATACATTTTTTGGG [XGTACX_site7681],7.02
13,GTTATTGTAAAAAGATTACACACGTTCTATATACTT [CACACA_site2473],7.15
14,TTTATACAAAAAAACAAAATCAAACAAAAAAAAAAA [CACACA_negctrl_site252],6.96
15,GATATATTTTATATATGTACATACAGTGGTAAATAT [XGTACX_site1324],7.1
16,TTTTCTACATCTTGTTGTACGAAAAATAAAAAAAAT [XGTACX_site4620],7.25
17,AGTACGTAAATTATAATACACACTATAGGATATTCT [CACACA_site2559],7.06
18,GTGCGTGCGTGTACTTAACACACATAATATGTATTT [CACACA_site8336],8.89
19,TAATTCCATAAGTAAACACACAAATGCCAAAATTTT [CACACA_site3205],6.86
20,ATATATAAAAATATTTGTACATATAGTTATATTTAT [XGTACX_site6114],7.03
21,TTAAGCCGCAATATGGGTACATAGGAAGAAGGGGAA [XGTACX_site8397],7.26
22,TTTCTTTTTCTAGTTATTTTTACTTATCCCTAATTT [TGCATGCA_negctrl_site460],7.09

row,Sequence,gcPBM binding intensity (ln)
1,TTATAATTAAGATATAATCAATAATAACAAATGAAC [CACACA_negctrl_site1690],7.29
2,TTCTTTGCTTCTGTTTCACACATTTTTAAAATAAGC [CACACA_site4741],7.72
3,TTAAAGGGAATGTATACACACGTTTCTCTATGTTAT [CACACA_site4793],6.63
4,CAAAAAAGGTCCCGGAGTACATATATAATTTTTTTT [XGTACX_site458],6.78
5,TATATATTGTTATATACACACATGTATATAAAAAAT [CACACA_site3221],6.85
6,GAGATGACATTACACAGTACCCAGGAAATCTACGGA [XGTACX_site4931],6.74
7,ATTGTCCTAAATACTACAAAGTAGATCTTTAATATT [CACACA_negctrl_site1795],6.94
8,AATGTCCTTATTTGCACACACACATATAAGAAATTT [CACACA_site3186],7.46
9,TATAATAAATCATATGCATGTTGAAAAAAAAAAAAA [TGCATGCA_site923],7.09
10,ATTTGAGAGTTAACAAAATATTTGGCCATCTTTTAT [XGTACX_negctrl_site447],6.68
11,AACTCATAGCGGTGTGCACACAAAAAATTAAAAAAA [CACACA_site3033],8.94
12,TCATAAATGAAACACACACACACATCTGGATACCCC [CACACA_site3332],7.25
13,ATTATATATATAAAGTGTACAAAAAAAAAAAAAAAA [XGTACX_site3134],7.19
14,ATATGTAGTTTTTACCTAATAAAAAAAAAAAAAAAA [CACACA_negctrl_site672],7
15,TAAACATATAAAAAGGGTACACATTAAACATAGTAT [XGTACX_site7096],7.16
16,AAATCATTCCTTTATTCACACAATATCTGTATTTAT [CACACA_site4407],6.89
17,TATAAAATAAAAATTATATATTTTAAATGGATACAA [TGCATGCA_negctrl_site284],7.01
18,AAAACAAATTAAAATCGTACAATTATAATGTTAATG [XGTACX_site180],7
19,ATAGCTAAGATAGCTTGTACATATATTTACATATAT [XGTACX_site3694],6.8
20,ATTTAAATGAAAAAATGTACAAAAAGATTTAAACTC [XGTACX_site1489],7.23
21,ATGCACATTTATAAAAGTACATGTATGTAATATGTT [XGTACX_site830],7.2
22,ATATTTTGTTATGTAGATGTTGGTAGGAATTTTGGT [CACACA_negctrl_site1104],7.21

row,Sequence,gcPBM binding intensity (ln)
1,AATAAATAAATAAATAAAACAAAGGGATTACATACA [TGCATGCA_negctrl_site513],7.01
2,CACAACATATATATATATATATATATATATATGTGT [CACACA_negctrl_site28],8.7
3,TTAAAAAAATATTGAAGTACACACATTATAAACTTT [XGTACX_site3548],7
4,TACTTTTTAGGAAAGTGTACAAGCATATAAGGAATA [XGTACX_site2834],7.29
5,ATATAATAAAATTAATGTACATATATGTATTATATA [XGTACX_site3283],6.86
6,TTTCATATATATGAAACACACAAAGGAAAAAAAATT [CACACA_site4144],7.23
7,AACATAATCTCATATACACACAAAAATATTGAAATA [CACACA_site7085],7.06
8,AAAAAAAAAAAACACACACACATAGACCTCCAATAG [CACACA_site3562],7
9,ACAAGTTTATTTGTTGCACACATATAAGTAGAGAAA [CACACA_site8994],7.69
10,GCTCATATGACAACAACACACAAAAAAATAAAATGA [CACACA_site714],7.16
11,TAATAATATATTTGTAGTACACAATTTTTTATAACT [XGTACX_site3951],7.19
12,CACACGCACGGACACACACACATATAAAATCTATAT [CACACA_site6428],7.54
13,TGTTATTAAAATATAGTGCATAATTAACCATTATAA [GTGCAC_site9594],8.63
14,TACTTATATACACATGTATATTATATATATAATATA [XGTACX_negctrl_site335],7.31
15,TACTATAACAGACATACACACAAAAAAAAAAAAAAA [CACACA_site538],7
16,ATTTTTTTTTTTTTTTTTTTTTTTTTTTAATCTGGA [CACACA_negctrl_site1347],6.75
17,ATATTTAACAGGTTAAAAATATAAACAAATAAATAA [CACACA_negctrl_site907],6.85
18,GAGAGGATAGTTCACAGTACTCAGTAACTCTACGGA [XGTACX_site4875],6.62
19,AAAAAAAAATAATATACACACTCCAATATAAAAAAT [CACACA_site3958],6.94
20,TGTGTATTATAAACATGTACATAAAAATACGATATT [XGTACX_site3643],7.29
21,CGCACTAAAAAACACACACACACACCCATATATATA [CACACA_site4152],7.77
